Results taken from the supplement of paper PMC3334620.
In all, about 33,000 sequences were measured (“E-score (-0.5 to 0.5)”: median about -0.012, highest 2% from about 0.29 on). Some of the results follow.

molecular target: T1, Ybr033w (UniProt P38073); test: PBM E-score (8-mer binding enrichment) (E-score (-0.5 to 0.5)); higher = stronger / more preferred TF binding; most listed sequences are background and not binding sites; conditions: protein concentration: 200 nM; construct: GST-full length
T1 sequence: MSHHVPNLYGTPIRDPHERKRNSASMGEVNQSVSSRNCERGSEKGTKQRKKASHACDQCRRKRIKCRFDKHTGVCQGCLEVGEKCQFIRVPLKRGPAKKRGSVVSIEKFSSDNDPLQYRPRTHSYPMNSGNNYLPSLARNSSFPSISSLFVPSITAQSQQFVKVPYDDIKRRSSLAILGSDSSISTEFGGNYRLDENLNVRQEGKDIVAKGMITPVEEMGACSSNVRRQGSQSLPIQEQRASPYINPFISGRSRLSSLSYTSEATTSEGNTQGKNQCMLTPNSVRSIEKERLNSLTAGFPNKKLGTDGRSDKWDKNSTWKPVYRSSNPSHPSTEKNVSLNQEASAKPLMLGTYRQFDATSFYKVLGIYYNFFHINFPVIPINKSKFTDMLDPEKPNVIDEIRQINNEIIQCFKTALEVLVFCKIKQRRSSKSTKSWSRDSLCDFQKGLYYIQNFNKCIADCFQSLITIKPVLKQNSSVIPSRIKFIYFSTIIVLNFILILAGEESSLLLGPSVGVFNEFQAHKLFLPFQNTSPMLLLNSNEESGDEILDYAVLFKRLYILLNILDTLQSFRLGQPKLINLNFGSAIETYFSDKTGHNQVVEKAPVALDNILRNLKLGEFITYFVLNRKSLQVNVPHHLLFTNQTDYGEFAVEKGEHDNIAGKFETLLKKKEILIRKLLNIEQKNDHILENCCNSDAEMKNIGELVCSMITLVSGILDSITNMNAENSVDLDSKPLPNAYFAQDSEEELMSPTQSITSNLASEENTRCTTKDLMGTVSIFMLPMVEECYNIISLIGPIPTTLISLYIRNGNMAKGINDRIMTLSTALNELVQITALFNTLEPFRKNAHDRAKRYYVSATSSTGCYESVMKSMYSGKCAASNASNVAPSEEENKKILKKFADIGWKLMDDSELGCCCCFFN
In short: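 Masliner-normalised scans of fluorescent anti-GST signal were the basis for scoring. That signal came from GST-tagged yeast transcription factors applied at about 100-200 nM to double-stranded universal all-10-mer Agilent arrays on fresh or once-stripped slides. Each ungapped eight-base word, pooled with its reverse complement, received an E-score from the Universal PBM Analysis Suite.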

In order of rising “PBM E-score” value:
1. CGGAGGCC  -0.33
2. GGGCCTGA  -0.295
3. GGGGCGCA  -0.268
4. ACTGATGG  -0.236
5. GGGCTTGA  -0.229
6. CGGCACGC  -0.227
7. AGGCGTCA  -0.223
8. GGGGATCA  -0.21
9. ACGGGCGA  -0.208
10. GTCTGCAA  -0.192
11. CCGCACCG  -0.192
12. ACACAGGG  -0.191
13. GGTAGCTA  -0.185
14. AGACTACA  -0.18
15. CCAGCTCG  -0.167
16. CCAATTGC  -0.166
17. AGCGACCC  -0.165
18. AGGGGATC  -0.158
19. AGGGCATG  -0.144
20. CCGGTACA  -0.139
21. ATGTCATC  -0.133
22. AGTGCCAG  -0.131
23. ACCTCAGC  -0.131
24. AACCTGAA  -0.128
25. ACCTTGCT  -0.127
26. CTAAGGAC  -0.11
27. ACAGCTAG  -0.105
28. AAAGTCCC  -0.0998
29. CGGGGACC  -0.0869
30. CAGACTCG  -0.0866
31. CAGGTTCG  -0.0708
32. AGCCTACA  -0.0683
33. CTTGCCGA  -0.0582
34. CGTACAGA  -0.0561
35. AGATAAGG  -0.0552
36. CACTGGCA  -0.0531
37. ACAGGTGC  -0.0483
38. CATGGCAA  -0.048
39. ACGCTTAG  -0.0441
40. ATCTAGCC  -0.0426
41. ACTTCGGG  -0.0396
42. ACCGTGAA  -0.0312
43. CTTACGCA  -0.031
44. ACAAGCCT  -0.0261
45. ACACGCTC  -0.0172
46. CACTCGCC  -0.0171
47. AAGTAGAC  -0.0111
48. CAAAGCAC  -0.0109
49. CAACAGCC  -0.00498
50. AGTGTATG  0.00317
51. CTGTCTTC  0.0214
52. ACGTAGTA  0.0289
53. ATAACCTA  0.03
54. ATTGTCAG  0.0363
55. CTAAGGTA  0.043
56. GCCGAACA  0.0493
57. ACTTGTCC  0.0494
58. AATCGTCT  0.0574
59. AAGCATTC  0.0632
60. TAGCGGAA  0.0655
61. ATTAGCGA  0.0773
62. AATACGTC  0.0808
63. CCAACTAG  0.0822
64. CACGAAGA  0.0846
65. ATCCACTG  0.0913
66. ATTAGCTC  0.117
67. CCCGAATA  0.121
68. AGGTATAT  0.128
69. ATCTTCAA  0.136
70. ATATGGAT  0.138
71. GACAAAAC  0.144
72. AAGGAATG  0.151
73. TGCTGTAA  0.154
74. ACATTGAA  0.155
75. ATATTCTG  0.157
76. TTCAACAA  0.16
77. TCATACAA  0.163
78. GACGAATA  0.163
79. TAGTGACA  0.191
80. ATTTATGC  0.197
81. CTATTGAA  0.235
82. ATTCCGAG  0.242
83. AATATGAG  0.245
84. ATTACATC  0.266
85. TTAAGTAA  0.287
86. AAATTATT  0.417
